Source: the supplement of paper PMC3334620
Whole data set: some 33,000 sequences, median “E-score (-0.5 to 0.5)” near -0.04, cut for the highest 2% near 0.36. This is one part of the list.

Molecular target: T1, Hmlalpha2 (UniProt P0CY09)
T1 sequence: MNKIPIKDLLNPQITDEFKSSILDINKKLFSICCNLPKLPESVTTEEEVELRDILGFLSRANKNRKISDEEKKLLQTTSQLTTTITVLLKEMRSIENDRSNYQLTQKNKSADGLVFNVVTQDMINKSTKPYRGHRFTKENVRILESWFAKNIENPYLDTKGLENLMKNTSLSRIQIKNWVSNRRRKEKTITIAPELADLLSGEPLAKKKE
Test: PBM E-score (8-mer binding enrichment) (E-score (-0.5 to 0.5)); higher = stronger / more preferred TF binding; most listed sequences are background and not binding sites
Settings: protein concentration: 200 nM; construct: GST-full length
Outline: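 PURExpress in vitro transcription/translation supplied GST-tagged yeast transcription factors, either full-length or DNA-binding domain. Applied at about 100-200 nM to universal all-10-mer Agilent arrays double-stranded by primer extension, the bound protein was detected with fluorescent anti-GST. E-scores, modified Wilcoxon-Mann-Whitney statistics, were given by the Universal PBM Analysis Suite to ungapped eight-base words pooled with their reverse complements after masliner normalisation.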

Sequence	PBM E-score
ATATTGTA	0.184
CACACGGA	0.0896
CTGCGACA	-0.0456
GGGCTACC	-0.243
ATTGGACA	0.0505
CAATGATC	-0.093
ATAGTACG	-0.0111
AAGCCAAG	-0.228
CATCGATG	0.268
ATACCAGG	-0.0417
AGATTAAC	0.188
CCACGGGC	-0.165
CTCTCAGC	-0.149
AGTTTGAA	-0.0108
CCCGCTCG	-0.199
ACAATTGA	0.137
ACGCAGAA	0.152
GTTTAAGA	0.014
ACCGCAGC	-0.316
CGCGGTCA	-0.134
ACTTACAG	0.134
ACTTAGTA	0.217
GAACCTAC	0.0683
ACATCGGG	-0.119
AAGCCTGA	-0.241

Sequence	PBM E-score
GTACTAGA	0.229
GCTGACAA	0.165
AAAATCCC	-0.173
CTTGCAAC	0.228
GCCGCAAC	-0.0377
ATACAGAG	0.0854
AGTACGTG	0.154
GGTGCCCA	-0.178
ATCAACGC	0.316
CTCAGGCA	-0.243
AGAAGAAG	-0.165
CCAGCTAG	-0.00523
GATAGCGA	-0.126
CCTGTGCC	-0.221
CTGGTCCA	-0.174
ATACCGCA	-0.0973
CCGATGCA	-0.155
AATACGAT	0.238
CCGGATCA	-0.0165
GTTGGCGA	-0.0755
CTCTACTA	0.0969
ATACAGGG	0.0701
CAGTCTCG	-0.142
ATACGCGA	0.346
ACCGTTGA	-0.148

Sequence	PBM E-score
CTGACCCC	-0.308
ACACTTAT	0.0619
CACTTCAG	-0.031
AATCCTCT	0.00028
ACCGTACT	-0.0265
CATATCGA	-0.0723
CAGGCGGC	-0.169
GGTTGGGA	-0.224
CTCAACAC	0.382
AACACAGC	0.379
CGGCTTGC	0.0109
CCACTCCC	-0.404
ATCTATAC	0.0772
GACATCAA	0.0495
CTCCCGCA	-0.176
GGTAGTAC	-0.0481
ACCCACCC	-0.0404
TGAAAACA	0.317
AGAAAGCA	0.0106
AACACAAG	0.326
ACTTGTGA	0.148
ATTCGAGA	-0.0114
AAGGTATG	0.0872
GGAAGGAA	-0.243
AGTCCCTC	-0.253

Sequence	PBM E-score
GCCCGAAC	-0.268
ACTCCGTC	-0.0399
CCTCAACC	-0.0829
AGCTAGCC	-0.134
AAGTGGGA	0.0175
CTCTCGGC	-0.226
GAGAAAGA	-0.108
TCTAGGAA	-0.134
CGAAAACC	0.0241
CGTTAACC	0.241
AATATTAT	0.189
AGCCATCA	-0.055
GACTGAAA	-0.0472
AGATACTA	-0.161
AGGCCCTA	-0.127
GAACAGCC	-0.178
ACATTCGG	0.133
ACTAGTAA	0.235
AGAGTCAC	-0.124
CACTTGGA	-0.0936
CAGGTAGG	-0.225
TGACTACA	0.286
AACCATAC	-0.176
CTCCCTCC	-0.389
CAACTGCG	-0.126

Sequence	PBM E-score
GAGCAAAA	-0.094
ATCCAGGA	-0.118
CACTACGC	0.0484
GGCGAAAC	-0.0216
TGGATCCA	-0.063
GTAGATGA	0.192
GATCCCAC	-0.174
ATTTGCGC	0.055
AGTGTTAT	0.269
AATCTTAG	-0.0585
AAAGAGGG	-0.174
AGCGCTAC	-0.045
CTGCCATA	-0.218
AGCATATC	-0.0175
AATATTGT	0.23
GCGTTTGA	0.00157
AATCTAAC	0.16
TAACCATA	0.0693
ATGATCCA	-0.191
ACACCATA	0.0945
CCCATCTA	-0.109
ACTACGTA	0.212
CTACGTGA	0.123
CCCGAGAG	-0.302
CCCAACTA	-0.132

Sequence	PBM E-score
AATTCGCC	0.0749
GCGGGCAA	-0.0844
ATAGCTGC	0.0853
CATTCGTC	0.0074
CTAAGTCA	-0.0652
GGTTGGCA	-0.1
CGGGAACA	0.145
AAATAGAG	0.149
CCAAGCTA	-0.0808
GACGCCAA	-0.122
AACGACAG	0.0793
GAAGAGTA	0.109
CCCAGAAA	-0.0348
GGGCAAAC	-0.217
TAGCCGGA	-0.132
CTCGGCAC	-0.14
ACGTGTGG	0.136
CGTTCTGC	0.0488
AAGGCTAC	-0.0947
AGTTGTGG	0.0715
ACCAAGCC	0.0443
AAACGAGC	0.202
ACACGTCT	0.368
CTTGTACA	0.403
ATTCACCA	0.0468

Sequence	PBM E-score
CTACACCA	0.165
CCAACATC	0.0583
AAACCGCT	-0.137
ACATGGTC	0.308
CCTGAGCC	-0.329
AGTTTAAT	0.165
TCTTGGCA	-0.00388
AATCTAAG	0.0435
CATCCGTA	-0.0518
CCGCCAAG	-0.198
CACACGTG	0.289
GAGCACCA	-0.211
ACAAGACG	0.102
CGCCTGGC	-0.0832
AGGGGTGG	-0.405
GATCAAGC	0.134
CAAGACTG	0.0396
GGTGGAGA	-0.326
CAATAGTG	-0.0769
CAGATTGA	0.00811
GGAAAGCA	-0.112
CTGGTGAC	-0.28
AGAAACTG	0.00819
GGCAATAA	-0.0126
CTCCTGCC	-0.274

Sequence	PBM E-score
CGAACTGC	-0.08
CGACTTAA	0.118
TGTCGAAA	0.315
ATCTAGTG	-0.0896
AGTAAGGG	-0.0977
ATTGGAAG	-0.0294
GCACAATA	0.0119
ATGTATCC	0.294
GATGCGAA	-0.0115
GGCTCGCA	-0.23
ACCCTGCC	-0.298
ATACCATG	0.189
ACAAATCT	0.146
AGGAATAA	0.0409
CCGATTTA	-0.0594
ACCTAAGA	0.127
GATCCTCA	-0.0487
AGGGCACA	-0.173
AGCATGAT	0.0873
CAGTCTCA	-0.0494
ATGCCAGC	-0.0679
GGGATCCC	-0.263
AGTAACAT	0.295
ATGGACGC	0.114
AGACGTAG	0.0145

Sequence	PBM E-score
ACCTACGC	0.0927
AAGGCCGA	-0.128
CGCGAACG	-0.0434
AGCTGACC	-0.141
GAATAGGC	-0.168
CGGCCTCC	-0.3
AAACGATC	-0.0778
GCTGGAAA	0.0463
CATTTCAA	0.18
GAGGCATA	-0.149
TGCCTGAA	0.0147
AATCTCCG	-0.278
AGGAATAG	-0.0262
CTCCGATC	-0.266
ACTCACAG	-0.126
CTCGGCCC	-0.296
ATCGCCTC	-0.0718
ATAAACCA	0.0582
AAAGTATC	0.119
ACTGCCGG	-0.241
AGTGCTTC	-0.156
AAAACTTC	0.102
GGGATGAA	-0.274
ACTACTGA	-0.00815
GAAGGTGA	-0.113

Sequence	PBM E-score
AGCATTAC	0.254
CTCGGACA	-0.0617
CTCTGCCA	-0.219
GCATACCC	-0.132
CAAACGTC	-0.178
CCTAACTC	-0.212
GCTCGTTA	0.11
ATATTAAC	0.277
ATAACAAC	0.236
CGTAGGCA	-0.112
AATGGCTC	0.00118
CCACAATA	-0.16
CTAATTGA	0.112
GCAATCGC	-0.233
ATCTGATA	-0.205
ATTGTCTA	0.207
GCGGTAAA	0.258
CCCGCCCG	-0.103
ACCTCCCC	-0.162
ACGCTCCA	0.0165
ATACCTCC	-0.216
AACATACC	0.359
TCTCCGAA	0.0132
AGATTGAA	0.173
ACAGGATA	0.134

Sequence	PBM E-score
TCATACCA	0.0697
CGCGGTAG	0.0231
CCTGACCA	-0.0469
GCTACAGA	-0.0697
CAGACTTA	-0.0185
ATCTCAAA	0.0591
ACACTGAA	0.204
GCGACAAA	0.0565
CATGGGAG	-0.101
CAAGACTA	-0.0365
GACTCCAA	-0.223
TGTGGCAA	0.0206
GAACTGCA	-0.0547
GATATCAA	0.039
AGCGCTCG	-0.138
ACTCTGGG	-0.0823
CCTCGCAC	-0.0685
TCTGACCA	0.0821
CAGGCCGA	-0.0678
CCCTCGGA	-0.122
ACAACGAT	0.136
CGACCCAG	-0.209
CTTCTCAC	-0.193
AGCCGGCG	-0.235
ACACGACA	0.412

Sequence	PBM E-score
GTAGAGCA	0.117
TCCGTAAA	0.126
AAATCGAC	0.158
TCGATGCA	-0.0973
AATTGGGT	0.134
GAGAGATC	-0.158
CGTAGCAC	0.0715
AAACGCTC	-0.144
CTGACGTC	0.0227
ATCGCCCA	-0.267
CTTCGGAC	0.085
AGACAAGC	-0.0459
TGATACCA	-0.00425
GCGGCGAC	-0.168
CCACCGGA	-0.0874
ACAACCAC	0.0618
ATCATTGC	-0.194
ATGGATTA	-0.106
ACATGGCT	0.33
CCTCATAA	-0.00147
AGTTGGTG	-0.0628
AATCGTCC	0.0645
CCTGTCCA	-0.321
CCAGTGAG	-0.189
CTAACATC	0.205

Sequence	PBM E-score
ACAAGGCT	0.145
TACGTCGA	0.0708
CCACCGCG	-0.186
TACTCCGA	-0.0648
CTGGGATC	-0.141
ACGTCCTG	-0.105
CAGAATAG	-0.0888
GCCCGGAA	-0.131
CCAGCCTC	-0.149
GCGTTGGA	0.115
ATGAGCCC	-0.13
CTCATTCA	-0.126
CATTATAC	0.292
GAGCCTGC	-0.196
AAACGGAC	-0.0539
CTTAAGAA	0.0585
AAGGCGCC	-0.118
TCATGTCA	0.359
CCAAGTCC	-0.309
TAAAGCCA	0.107
CCGGGGGA	-0.289
AGACAGGA	0.0355
GAGGCATC	-0.268
ATCGCTGC	-0.136
ATGCAATG	0.0723

Sequence	PBM E-score
GAAACGCC	-0.0175
AGTTTCGG	-0.031
TGCAGCAA	-0.0391
GGGGTTTA	-0.0666
AAGGGGCA	-0.215
ACCCTACT	-0.0148
GCACAACC	-0.138
CAAATCTC	-0.132
CTGATCTC	-0.211
AAATGGGT	0.0412
ATTATGGA	-0.0458
CAGTTGCC	-0.0299
CAAGCTGA	0.0482
GATGTTGA	0.276
CCCTGTGC	-0.0862
CTTCCTTA	0.047
AGGATGGC	-0.123
CAGAGTGA	-0.0354
ACACTCCG	0.00523
